# Experimental data taken from PubChem BioAssay AID1240 (Sanford-Burnham Center for Chemical Genomics, 2008).
# The whole screen tested about 50,000 compounds, of which about 800 (1.6%) showed an effect of 50% or more. Some of the results follow.
# Target: Bcl-2-like protein 10 (Homo sapiens) (UniProt Q9HD36)
# Assay: Phenotype converters, Bcl-B/TR3 peptide binding displacement, primary biochemical FP (AID 1240);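 further: 0% = Bcl-B with tracer peptide and DMSO and 100% = tracer peptide lacking Bcl-B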
# Details: GST-Bcl-B / FITC-TR3 peptide fluorescence polarization; stronger effect = higher value; compound at 3.75 mg/L
# UniProt Q9HD36, sequence (Q9HD36 whole entry, looked up): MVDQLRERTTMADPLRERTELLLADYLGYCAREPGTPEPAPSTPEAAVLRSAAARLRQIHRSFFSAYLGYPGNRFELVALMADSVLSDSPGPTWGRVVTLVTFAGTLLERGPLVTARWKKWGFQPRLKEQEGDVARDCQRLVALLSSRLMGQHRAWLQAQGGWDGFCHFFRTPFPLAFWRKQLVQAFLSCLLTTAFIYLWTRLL
row,Structure (SMILES),displacement
1,CC1(CC2C(CC(N)=O)C2(C)C)OCCO1 (stereo not drawn),13.4%
2,O=C(Nc1cccc(F)c1)/C(=C/c1cccnc1)NC(=O)c1cccc(Br)c1,0.3%
3,CCOc1ccc(C(=O)Nc2ccc(Cl)c(-c3nc4ccccc4[nH]3)c2)cc1Cl,-13.1%
4,CC1CCN(c2ccc(NC(=O)c3ccc(Cl)cc3)cc2)CC1,5.2%
5,C=CCNC(=O)CN(c1ccc(OC)cc1)S(=O)(=O)c1ccc(C)cc1,5.1%
6,Cc1c(N2C(=O)CS/C2=N\N=C\c2ccc(Cl)cc2)c(=O)n(-c2ccccc2)n1C,-7.8%
7,COc1ccc(/C=C2\SC(=S)N(CCCCCC(=O)N3CCN(C)CC3)C2=O)cc1,9.1%
8,COc1cc(OC)cc(C(=O)Nc2ccc(I)cc2Cl)c1,-0.6%
9,COc1cc(/C=C2\SC(=Nc3cccc(Cl)c3C)NC2=O)cc(OC)c1OC,43.6%
10,Cc1cc(NC(=O)CN2CCOCC2)c2ccccc2n1,-1.9%
11,Cc1cc(=O)[nH]c(SCC(=O)Nc2ccc(F)cc2)n1,-8%
12,CC(=O)Nc1ccccc1NC(=O)c1ccc(I)cc1,19.6%
13,CC(C)COc1ccc(C(=O)Nc2cccc3ccccc23)cc1,10.5%
14,CC(=O)Nc1ccc(S(=O)(=O)Nn2cnnc2)cc1,-0.9%
15,Cc1ccc(N2C(=O)CC(N3CCN(c4ccc(Cl)cc4)CC3)C2=O)c(C)c1 (stereo not drawn),10.8%
16,O=C(CCCSc1nc2sc3c(c2c(=O)[nH]1)CCCC3)NCCCO,-1.9%
17,CC(Nc1n[nH]c(=O)[nH]c1=O)C(=O)N/N=C/c1ccc(Cl)cc1 (stereo not drawn),-9.3%
18,Cc1ccc(-c2cc(C(=O)NC(C)C)c3ccccc3n2)c(C)c1,-4%
19,Cc1ccc2c(C)nc(Nc3nc4ccccc4c(=O)[nH]3)nc2c1,11.9%
20,CCOC(=O)c1c(C)oc2cc(Br)c(OCC(=O)OCc3ccccc3)cc12,10.8%
21,COC(=O)NC1(C(Cl)Cl)N=C(c2ccccc2)N=C1N (stereo not drawn),11.9%
22,CCN1C(=O)/C(=C\c2cccc(C)c2)SC1=S,17.4%
23,CC(NC(=O)Nc1ccc(Cl)c(Cl)c1)C1CC2CCC1C2 (stereo not drawn),-5.1%

row,Structure (SMILES),displacement
1,Cc1c(OCc2c(F)cccc2Cl)ccc2c3c(c(=O)oc12)CCC3,9.5%
2,C(=N\N1CCN(Cc2cccc3ccccc23)CC1)/c1ccccn1,-3.8%
3,CCCN(CCC)CN1C(=O)S/C(=C/c2ccc(SC)cc2)C1=O,-1.7%
4,Cc1ccc(C(=O)O)cc1N1C(=O)c2ccc(C(=O)c3cccc([N+](=O)[O-])c3)cc2C1=O,14%
5,Nc1cc(-c2cccc(Br)c2)nn1Cc1ccc(Cl)cc1,5%
6,CCOCCOC(=O)c1ccc(NC(=O)c2ccco2)cc1,15.9%
7,Cc1ccc(OCCn2c(=S)[nH]c3ccccc32)cc1,-1.1%
8,O=C(Nc1cccnc1)c1ccc(CN(c2ccccc2)S(=O)(=O)c2ccccc2)cc1,-8.7%
9,O=C(COc1ccc(Cl)cc1Cl)NNc1nc(N2CCOCC2)nc(N2CCOCC2)n1,2%
10,Oc1ccc(NC(=S)Nc2ccccc2)cc1,4.1%
11,O=C1C=C/C(=N\S(=O)(=O)c2ccc(Cl)cc2)C=C1Cl,21.1%
12,Cc1cc(C)cc(N2C(=O)NC(=O)/C(=C\c3ccc([N+](=O)[O-])o3)C2=O)c1,-3.8%
13,CC(Oc1cccc(Cl)c1)C(=O)Nc1cc([N+](=O)[O-])ccc1Cl (stereo not drawn),-3.1%
14,CCOC(=O)COc1nc2ccc(Cl)cc2c(-c2ccccc2)c1C(C)=O,4.7%
15,O=S(=O)(NC1CCCCCCC1)c1ccc(F)cc1,-3.4%
16,CCOc1cccc(C2NC(=O)NC(C)=C2C(=O)OCc2ccc(OC)cc2)c1 (stereo not drawn),12.3%
17,COc1ccc(C(=O)NC23CC4CC(CC(C4)C2)C3)cc1OC,5.2%
18,COc1ccc(/C=C(/C#N)c2nc(-c3ccc(Br)cc3)cs2)cc1OC,101%
19,COc1ccc(C(NC(=O)C(c2ccccc2)c2ccccc2)NC(=O)C(c2ccccc2)c2ccccc2)cc1OC,9.7%
20,CCOc1cc(C2C(C(=O)OC)=C(C)N(C)C(C)=C2C(=O)OC)ccc1OC(C)=O,10.7%
21,Brc1ccc2ncnc(Nc3ccc4c(c3)OCCO4)c2c1,3.7%
22,CNc1ccc([N+](=O)[O-])cc1N/C=C1\CCc2ccccc2C1=O,126%
23,COCCN1C(=O)C(=O)/C(=C(/O)c2ccccc2)C1c1ccc2c(c1)OCO2 (stereo not drawn),0.6%

row,Structure (SMILES),displacement
1,O=C1NC(=O)C2C1C1(c3ccccc3)C(=O)C2(c2ccccc2)C(c2ccccc2)=C1c1ccccc1 (stereo not drawn),0.7%
2,NC(=O)CN(c1cccc([N+](=O)[O-])c1)S(=O)(=O)c1ccccc1,-2.3%
3,Cc1c(Cc2ccccc2)c(NCCN(C)C)n2c(nc3ccccc32)c1C#N,-0.3%
4,CC1=CC(C)(C)Nc2ccc(OC(=O)C3CCCO3)cc21 (stereo not drawn),16.2%
5,CC(=O)c1ccc(Oc2ccc(C(C)=O)cc2)cc1,-0.2%
6,COc1cc([N+](=O)[O-])ccc1NC(=O)/C=C\c1ccc(Cl)cc1,-1.8%
7,COc1ccccc1-n1c(CN2C(=O)c3ccccc3C2=O)nc2ccccc2c1=O,1.9%
8,COc1ccc(OCCNc2cc(N3CCN(CCO)CC3)ccc2[N+](=O)[O-])cc1,3%
9,COc1ccc(/C=C/C(=O)OCc2ccc([N+](=O)[O-])cc2)cc1S(=O)(=O)N1CCCCC1,-10%
10,Cc1ccc(S(=O)(=O)N(Cc2ccccc2)Cc2ccccc2)cc1,15.9%
11,Cc1c(Br)c([N+](=O)[O-])nn1CC(=O)NCc1cccs1,12.2%
12,Cc1c(-c2ccc(F)cc2)[n+](=O)c2c(n1[O-])CCC2,-7.2%
13,CC(=O)N1Cc2ccccc2C(C)CC12CCCC2 (stereo not drawn),-0.9%
14,Fc1ccccc1NCn1cnc2ccccc21,1.6%
15,O=C(N/N=C/c1cccc(Br)c1)C(Oc1ccccc1)Oc1ccccc1,-0.7%
16,COc1cc(/C=C2/C(=O)NC(=O)N(c3ccc(Cl)cc3)C2=O)cc([N+](=O)[O-])c1O,-8.8%
17,CN1CCN(CC(=O)n2c3c(c4ccccc42)CCCC3)CC1,4.6%
18,O=C(NNC(=O)C(c1ccccc1)c1ccccc1)c1ccccc1Cl,-10.1%
19,O=C(Nc1cc([N+](=O)[O-])ccc1C(=O)N1CCC(Cc2ccccc2)CC1)c1cccs1,-7.8%
20,O=C(Nc1ccc(I)cc1Cl)c1ccccc1[N+](=O)[O-],-2%
21,O=C(c1ccc(I)cc1)N1CCN(c2ccccn2)CC1,7.5%
22,C/C(=N\NC(=O)c1cc(-c2ccccc2)n[nH]1)c1ccccc1,-11.4%
